Source: patent publication US8975247B2, “Methods and compositions of treating a flaviviridae family viral infection” (priority 2009, dated 2015)

Assays:
Huh7.5 cells = type: cell-based
[1] = system: HCV genotype 2a infectious clone; assay: HCV genotype 2a infectious clone assay (Renilla luciferase); type: cell-based; conditions: Hepatitis C virus; for activity at 5 µM: read-out: 2a % activity @ 5 μM, % replication activity of control remaining at 5 μM test compound

Structure (SMILES)	2a Cell Viability @ 5 μM (Huh7.5 cells; human, 3 days, 5 μM)	2a Cell Viability @ 10 μM (Huh7.5 cells; human, 3 days, 10 μM)	activity at 5 µM [1]	2a Cell Viability @ 5 μM (Huh7.5 cells; % cell survival at 5 μM)	2a Cell Viability @ 10 μM (Huh7.5 cells; % cell survival at 10 μM)	EC50 ([1]; read-out: 2a EC50 (inferred from <50% replication activity at 5 μM))
CCc1nc2ccccc2n1Cc1ccc(Cl)cc1 [EBP008]	91%	82%	83%	–	–	–
CC(C)(C)C(=O)NCc1nc2ccccc2[nH]1 [EBP012]	> 100%	93%	73%	–	–	–
CC(C)c1nc2ccccc2n1Cc1ccc(Cl)cc1 [EBP017]	81%	88%	62%	–	–	–
Clc1ccc(Cn2c(Cc3ccccc3)nc3ccccc32)cc1 [EBP020]	> 100%	68%	80%	–	–	–
Cc1cc2ncn(Cc3ccc(Cl)c(Cl)c3)c2cc1C [EBP048]	100%	89%	67%	–	–	–
Nc1nc2ccccc2n1C(=O)c1ccc(Cl)cc1 [EBP052]	91%	82%	82%	–	–	–
OCc1nc2ccccc2n1Cc1ccc(Br)cc1 [EBP059]	–	–	50%	–	–	–
Cc1cc2ncn(Cc3ccc(C#N)cc3)c2cc1C [EBP061]	86%	88%	76%	–	–	–
COC(=O)c1ccc(Cn2cnc3ccccc32)cc1 [EBP062]	–	–	59%	–	–	–
Oc1ccc(Cn2cnc3ccccc32)cc1 [EBP067]	85%	88%	88%	–	–	–
Cc1cc2nc(/C=C/c3ccccc3)n(Cc3ccc(Cl)cc3)c2cc1C [EBP101]	–	–	57%	> 100%	95%	–
Cc1cc2c(ncn2Cc2ccccc2)c(N)c1C [EBP102]	100, 100%	100, 100%	80%	–	–	–
COc1ccc(Cn2c(C)nc3c(N)c(C)c(C)cc32)cc1 [EBP104]	98%	96%	72%	–	–	–
CS(=O)(=O)c1ccc2c(c1)nc(C(F)(F)F)n2Cc1ccccc1 [EBP108]	–	–	61%	100%	96%	–
CCOC(=O)Cc1nc2cc(S(C)(=O)=O)ccc2n1Cc1ccccc1 [EBP109]	100, 100%	100, 100%	76%	–	–	–
CS(=O)(=O)c1ccc2c(c1)nc(S)n2Cc1ccccc1 [EBP110]	98%	90%	76%	–	–	–
Cc1cc2ncn(Cc3cc(Cl)cc4c3OCCO4)c2cc1C [EBP113]	92%	90%	68%	–	–	–
Cc1cc2nc(CN3CCCC3)n(Cc3ccc(Cl)cc3)c2cc1C [EBP126]	> 100%	77%	65%	–	–	–
Clc1ccc(Cn2c(CN3CCCC3)nc3cc(Cl)c(Cl)cc32)cc1 [EBP127]	>100, >100%	>100, >100%	80%	–	–	–
Cc1cc2nc(-c3ccc[nH]c3=O)n(Cc3ccc(Cl)cc3)c2cc1C [EBP128]	92%	94%	76%	–	–	–
Cc1cc2nc(-c3ccc(=O)[nH]c3)n(Cc3ccc(Cl)cc3)c2cc1C [EBP129]	90%	78%	79%	–	–	–
COC(=O)c1ccc(Cn2c(/C=C/c3ccccc3)nc3cc(C)c(C)cc32)cc1 [EBP131]	94%	61%	71%	–	–	–

Structure (SMILES)	2a Cell Viability @ 5 μM (Huh7.5 cells; human, 3 days, 5 μM)	2a Cell Viability @ 10 μM (Huh7.5 cells; human, 3 days, 10 μM)	activity at 5 µM [1]	2a Cell Viability @ 5 μM (Huh7.5 cells; % cell survival at 5 μM)	2a Cell Viability @ 10 μM (Huh7.5 cells; % cell survival at 10 μM)	EC50 ([1]; read-out: 2a EC50 (inferred from <50% replication activity at 5 μM))
COc1ccc(Cn2c(C)nc3c(NS(=O)(=O)c4ccc(F)cc4)c(C)c(C)cc32)cc1 [EBP132]	93%	79%	70%	–	–	–
Clc1ccc(Cn2c(CN3CCCCC3)nc3ccccc32)cc1 [EBP133]	>100, >100%	>100, >100%	86%	–	–	–
CCCN(CCC)Cc1nc2ccccc2n1Cc1ccc(Cl)cc1 [EBP137]	–	–	69%	–	–	–
COCC1CCN(Cc2nc3ccccc3n2Cc2ccc(Cl)cc2)C1 (stereo not shown) [EBP138]	98, 98%	98, 98%	84%	–	–	–
O=C(O)C1CCN(Cc2nc3ccccc3n2Cc2ccc(Cl)cc2)C1 (stereo not shown) [EBP141]	>100, >100%	>100, >100%	84%	–	–	–
COCC1CCCN1Cc1nc2ccccc2n1Cc1ccc(Cl)cc1 (stereo not shown) [EBP142]	>100, >100%	>100, >100%	77%	–	–	–
O=C1CCCN1Cc1nc2ccccc2n1Cc1ccc(Cl)cc1 [EBP144]	>100, >100%	>100, >100%	77%	–	–	–
COC(=O)c1ccc(Cn2c(CN3CCCC3)nc3ccccc32)cc1 [EBP152]	>100, >100%	>100, >100%	77%	–	–	–
O=C(O)c1ccc(Cn2c(CN3CCCC3)nc3ccccc32)cc1 [EBP153]	>100, >100%	>100, >100%	84%	–	–	–
COC(=O)c1cccc(Cn2c(CN3CCCC3)nc3ccccc32)c1 [EBP154]	>100, >100%	>100, >100%	89%	–	–	–
O=C(O)c1cccc(Cn2c(CN3CCCC3)nc3ccccc32)c1 [EBP155]	–	–	84%	–	–	–
Clc1cccc(Cn2c(CN3CCCC3)nc3ccccc32)c1 [EBP156]	89%	93%	57%	–	–	–
Clc1ccccc1Cn1c(CN2CCCC2)nc2ccccc21 [EBP157]	>100, >100%	>100, >100%	90%	–	–	–
c1ccc2c(c1)nc(CN1CCCC1)n2CC1CCCCC1 [EBP160]	–	–	86%	>100, >100%	>100, >100%	–
Clc1ccc(Cn2c(CN3CCCCCC3)nc3ccccc32)cc1 [EBP165]	–	–	69%	–	–	–
Cc1ccccc1Cn1cnc2c(NS(C)(=O)=O)c(C)c(C)cc21 [EBP166]	97%	91%	86%	–	–	–
Cc1cccc(Cn2cnc3c(NS(C)(=O)=O)c(C)c(C)cc32)c1 [EBP167]	>100, >100%	>100, >100%	83%	–	–	–
Cc1cc2c(ncn2Cc2ccccc2)c(NS(C)(=O)=O)c1C [EBP168]	> 100%	96%	87%	–	–	–
Cc1cccc(Cn2c(C)nc3c(NS(C)(=O)=O)c(C)c(C)cc32)c1 [EBP169]	> 100%	97%	86%	–	–	–
Cc1cccc(Cn2cnc3c(NS(=O)(=O)C(F)(F)F)c(C)c(C)cc32)c1 [EBP170]	94%	97%	33%	–	–	–
Cc1cc2c(ncn2C)c(NS(C)(=O)=O)c1C [EBP171]	–	–	80%	–	–	–
Cc1ccc2c(c1)nc(CN1CCCC1)n2Cc1ccc(Cl)cc1 [EBP183]	> 100%	99%	81%	–	–	–

Structure (SMILES)	2a Cell Viability @ 5 μM (Huh7.5 cells; human, 3 days, 5 μM)	2a Cell Viability @ 10 μM (Huh7.5 cells; human, 3 days, 10 μM)	activity at 5 µM [1]	2a Cell Viability @ 5 μM (Huh7.5 cells; % cell survival at 5 μM)	2a Cell Viability @ 10 μM (Huh7.5 cells; % cell survival at 10 μM)	EC50 ([1]; read-out: 2a EC50 (inferred from <50% replication activity at 5 μM))
COCC1CCCN1Cc1nc2cc(C)ccc2n1Cc1ccc(Cl)cc1 (stereo not shown) [EBP184]	> 100%	90%	82%	–	–	–
COCC1CCCN1Cc1nc2c(C)c(C)ccc2n1Cc1ccc(Cl)cc1 (stereo not shown) [EBP186]	> 100%	99%	80%	–	–	–
Clc1ccc(Cn2c(CN3CCCC3)nc3ccccc32)s1 [EBP187]	> 100%	99%	78%	–	–	–
CC(C)c1ccc(Cn2c(CN3CCCC3)nc3ccccc32)cc1 [EBP198]	–	–	79%	–	–	–
Oc1cc2ncn(Cc3ccc(Cl)cc3)c2cc1O [EBP215]	97%	95%	–	–	–	–
Clc1ccc(CCn2cnc3ccccc32)cc1 [EBP228]	–	–	81%	–	–	–
Cc1cc2nc(CN3CCCC3C(N)=O)n(Cc3ccc(Cl)cc3)c2cc1C (stereo not shown) [EBP234]	–	–	78%	–	–	–
Cc1cc2c(ncn2Cc2ccc(Cl)cc2)c(NC(=O)c2ccccc2)c1C [EBP242]	–	–	86%	–	–	–
Cc1cc2nc(CN3CCC[C@H]3C)n(Cc3ccc(Cl)cc3)c2cc1C [EBP273]	95%	82%	–	–	–	–
Clc1ccc(Cn2c(C[N+]3(Cc4ccc(Cl)cc4)CCCC3)nc3ccccc32)cc1 [EBP310]	–	–	> 10%	–	–	–
C[N+]1(Cc2nc3ccccc3n2Cc2ccc(Cl)cc2)CCCC1 [EBP311]	–	–	83%	–	–	–
Cc1cc2nc(/C=C/C3CCCCC3)n(Cc3ccc(Cl)cc3)c2cc1C [EBP321]	–	–	56%	–	–	–
Cc1cc2nc(COC3CCCCC3)n(Cc3ccc(Cl)cc3)c2cc1C [EBP324]	–	–	68%	–	–	–
Cc1cc2nc(COC(C)C)n(Cc3ccc(Cl)cc3)c2cc1C [EBP326]	–	–	78%	–	–	–
Cc1c[nH]c(/C=C/c2nc3cc(C)c(C)cc3n2Cc2ccc(Cl)cc2)n1 [EBP362]	–	–	71%	–	–	–
Cc1cc2nc(CCC3CCCCC3)n(Cc3ccc(Cl)cc3)c2cc1C [EBP363]	–	–	76%	–	–	–
Cc1cc2nc(CCC(C)C)n(Cc3ccc(Cl)cc3)c2cc1C [EBP364]	–	–	68%	–	–	–
COc1ccc2c(c1)nc(CN1CCCC1)n2Cc1ccc(Cl)cc1 [EBP365]	–	–	87%	–	–	–
Oc1ccc2c(c1)nc(CN1CCCC1)n2Cc1ccc(Cl)cc1 [EBP366]	–	–	89%	–	–	–
Cc1cc2nc(CN3CCC[C@@H]3CO)n(Cc3ccc(Cl)cc3)c2cc1C [EBP408]	–	–	90%	–	–	–
Cc1ccc2nc(CN3CCC[C@@H]3C)n(Cc3ccc(Cl)cc3)c2c1 [EBP490]	–	–	< 50%	–	–	< 5 µM
O=CCCCNCc1nc2ccccc2n1Cc1ccc(Cl)cc1 [EBP499]	–	–	83%	–	–	–

Where two headings read alike, the source gives them in different places.
